Measured values as given in the supplement of paper PMC7238544.
Where a name gives a salt, the structure may show the parent alone. ± gives the standard deviation of the averaged measurements. Some of the results follow.

Experiments:
Conditions in all cases: priming compound concentration 100 µM
hAMSC donor 1 [1] = test: Hoechst total cell count ratio vs vehicle control; higher = more cells (less toxicity)
hAMSC donor 2 [2] = test: as above
hAMSC donor 1 [3] = test: transgenic luciferase activity (RLU/mg protein) fold change vs vehicle control (ratio); higher = more transgene expression
hAMSC donor 2 [4] = test: as above
hAMSC donor 1 [5] = test: transfection efficiency (EGFP+ cells / Hoechst count) fold change vs vehicle control (ratio); hAMSC are human adipose-derived mesenchymal stem cells given an EGFP-luciferase plasmid by lipofection; higher = enhanced transfection
hAMSC donor 2 [6] = test: as above
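For Hoechst total cell count ratio vs vehicle control in this document: compound added 30 min before Lipofectamine 3000 lipoplex delivery, triplicate-well means expressed against DMSO vehicle control wells of the same 96-well plate.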
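For transfection efficiency (EGFP+ cells / Hoechst count) fold change vs vehicle control in this document: compounds added 30 min before Lipofectamine 3000 lipoplex transfection, triplicate means relative to DMSO vehicle wells on the same plate, luciferase RLU normalized to BCA total protein.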
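For transgenic luciferase activity (RLU/mg protein) fold change vs vehicle control in this document: compounds in DMSO added 30 min before Lipofectamine 3000 transfection of pEGFP-Luc in 96-well plates, values are means of triplicate wells over DMSO vehicle wells on the same plate.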

SMILES | Hoechst total cell count ratio (hAMSC donor 1 [1]) | Hoechst total cell count ratio (hAMSC donor 2 [2]) | transgenic luciferase activity (hAMSC donor 1 [3]) | transgenic luciferase activity (hAMSC donor 2 [4]) | transfection efficiency (hAMSC donor 1 [5]) | transfection efficiency (hAMSC donor 2 [6])
Cc1ccc(-c2nc3ccc(C)cn3c2CC(=O)N(C)C)cc1 [Zolpidem tartrate] | 1.16 ± 0.17 | 0.957 ± 0.19 | 0.979 ± 0.44 | 1.54 ± 0.44 | 1.53 ± 0.1 | 1.78 ± 0.47
FC(F)(F)c1cccc(N2CCNCC2)c1 [TFMPP hydrochloride] | 0.987 ± 0.084 | 1.19 ± 0.12 | 0.197 ± 0.05 | 1.02 ± 0.09 | 0.896 ± 0.14 | 1.23 ± 0.091
CC(C)[C@]12O[C@H]1[C@@H]1O[C@]13[C@]1(O[C@H]1C[C@H]1C4=C(CC[C@@]13C)C(=O)OC4)[C@@H]2O [Triptolide] | 0.81 ± 0.036 | 0.258 ± 0.028 | 0.0038 ± 0.0032 | 0.0139 ± 0.011 | 0.0363 ± 0.011 | 0.259 ± 0.27
C[C@]12CC[C@H]3[C@@H](CCC4=CC(=O)CC[C@@]43C)[C@@H]1CC[C@@H]2O [Testosterone] | 1.28 ± 0.065 | 0.657 ± 0.13 | 0.535 ± 0.24 | 0.264 ± 0.14 | 1.11 ± 0.31 | 1.14 ± 0.13
CC(NC(C)(C)C)C(=O)c1cccc(Cl)c1 (centres undefined) [Bupropion hydrochloride] | 1.3 ± 0.27 | 1.18 ± 0.17 | 0.85 ± 0.24 | 0.596 ± 0.058 | 0.695 ± 0.25 | 0.701 ± 0.16
CCOC(=O)C1(c2ccccc2)CCN(CCC(C#N)(c2ccccc2)c2ccccc2)CC1 [Diphenoxylate hydrochloride] | 1.03 ± 0.19 | 0.779 ± 0.14 | 0.743 ± 0.16 | 0.871 ± 0.27 | 1.26 ± 0.089 | 0.856 ± 0.14
COc1ccc2[nH]cc(C3=CCNCC3)c2c1 | 1.75 ± 0.1 | 2.78 ± 0.3 | 1.15 ± 0.38 | 0.629 ± 0.1 |  | 
CN1C(=O)CN=C(c2ccccc2)c2cc([N+](=O)[O-])ccc21 [Nimetazepam] | 1.26 ± 0.12 | 0.76 ± 0.11 | 0.919 ± 0.18 | 0.74 ± 0.11 | 0.701 ± 0.031 | 1.21 ± 0.14
Cc1ncc2n1-c1ccc(Cl)cc1C(c1ccccc1F)=NC2 [Midazolam hydrochloride] | 1.4 ± 0.12 | 1.18 ± 0.077 | 1.04 ± 0.047 | 1.61 ± 0.39 | 1.05 ± 0.17 | 1.2 ± 0.4
CN(C)C(=O)Oc1ccc[n+](C)c1 [Pyridostigmine bromide] | 1.21 ± 0.13 | 1.4 ± 0.12 | 2.17 ± 0.47 | 1.3 ± 0.097 | 1.18 ± 0.24 | 1.51 ± 0.077
COc1ccc(CCN)cc1OC [Homoveratrylamine] | 1.17 ± 0.054 | 1.09 ± 0.21 | 2.5 ± 0.48 | 0.84 ± 0.26 | 0.989 ± 0.084 | 1.81 ± 0.58
NC(=O)C[S+]([O-])C(c1ccccc1)c1ccccc1 (centres undefined) [Modafinil] | 1.55 ± 0.17 | 1.07 ± 0.072 | 2.93 ± 0.63 | 2.06 ± 0.13 | 1.39 ± 0.23 | 1.55 ± 0.24
CN1CCN(C(=O)O[C@H]2c3nccnc3C(=O)N2c2ccc(Cl)cn2)CC1 [Eszopiclone] | 1.34 ± 0.086 | 1.47 ± 0.2 | 0.668 ± 0.2 | 0.885 ± 0.059 | 0.527 ± 0.23 | 0.871 ± 0.039
O=C1CN=C(c2ccccc2)c2cc([N+](=O)[O-])ccc2N1 [Nitrazepam] | 1.38 ± 0.23 | 1.3 ± 0.22 | 0.471 ± 0.48 | 1.01 ± 0.61 | 1.3 ± 0.04 | 1.14 ± 0.16
CS(=O)(=O)Nc1ccc(Cc2noc(-c3ccc4[nH]cc(CCN)c4c3)n2)cc1 | 0.972 ± 0.14 | 1.39 ± 0.29 | 0.424 ± 0.16 | 0.539 ± 0.045 | 0.586 ± 0.096 | 0.712 ± 0.11
CC(C)c1cccc(C(C)C)c1O [Propofol] | 1.13 ± 0.18 | 1.19 ± 0.067 | 0.577 ± 0.13 | 1.06 ± 0.097 | 0.827 ± 0.13 | 1.03 ± 0.19
CN[C@@H]1C[C@@H](c2ccc(Cl)c(Cl)c2)c2ccccc21 [Indatraline hydrochloride] | 0.0543 ± 0.018 | 0.0253 ± 0.0021 | 0.00123 ± 0.00052 | 0.000712 ± 0.00028 | 0.0852 ± 0.15 | 0.0976 ± 0.17
c1ccc2c(c1)Nc1ccccc1S2 [Phenothiazine] | 1.02 ± 0.028 | 1.25 ± 0.39 | 1.91 ± 0.21 | 1.44 ± 0.15 | 1.52 ± 0.17 | 1.52 ± 0.35
CCCCCCCCCOc1ccc2[nH]cc(CCN)c2c1 [5-Nonyloxytryptamine hydrochloride] | 0.208 ± 0.13 | 0.357 ± 0.037 | 0.0145 ± 0.0072 | 0.000306 ± 5.5e-05 | 1.09 ± 0.43 | 0.3 ± 0.17
CNC1=Nc2ccc(Cl)cc2C(c2ccccc2)=[N+]([O-])C1 [Chlordiazepoxide] | 1.02 ± 0.016 | 1.08 ± 0.095 | 0.87 ± 0.2 | 0.91 ± 0.013 | 1.28 ± 0.23 | 0.778 ± 0.063
NC(=O)OCCCc1ccccc1 [Phenprobamate] | 1.43 ± 0.092 | 1.04 ± 0.081 | 0.66 ± 0.77 | 0.697 ± 0.17 | 1.24 ± 0.22 | 0.842 ± 0.12

SMILES | Hoechst total cell count ratio (hAMSC donor 1 [1]) | Hoechst total cell count ratio (hAMSC donor 2 [2]) | transgenic luciferase activity (hAMSC donor 1 [3]) | transgenic luciferase activity (hAMSC donor 2 [4]) | transfection efficiency (hAMSC donor 1 [5]) | transfection efficiency (hAMSC donor 2 [6])
CCN(CC)CCOC(=O)C(O)(c1ccccc1)c1ccccc1 [Benactyzine hydrochloride] | 1.03 ± 0.14 | 1.22 ± 0.069 | 1.14 ± 0.93 | 0.766 ± 0.23 | 1.22 ± 0.39 | 0.999 ± 0.21
C[C@]12CC[C@H](O)CC1=CC[C@@H]1[C@@H]2CC[C@]2(C)C(=O)CC[C@@H]12 [Dehydroepiandrosterone] | 1.42 ± 0.3 | 0.95 ± 0.11 | 0.243 ± 0.24 | 0.109 ± 0.043 | 1.22 ± 0.12 | 0.983 ± 0.26
COc1cc2c(cc1OC)[C@@]13CCN4CC5=CCO[C@H]6CC(=O)N2[C@H]1[C@H]6[C@H]5C[C@H]43 [Brucine] | 1.31 ± 0.24 | 1.22 ± 0.2 | 1.71 ± 1.4 | 0.694 ± 0.55 | 0.944 ± 0.25 | 0.805 ± 0.14
Oc1ccc2c3c1O[C@H]1c4[nH]c5ccccc5c4C[C@@]4(O)[C@@H](C2)N(CC2CC2)CC[C@]314 [Naltrindole hydrochloride hydrate] | 0.614 ± 0.052 | 0.359 ± 0.015 | 0.199 ± 0.024 | 0.413 ± 0.1 | 0.707 ± 0.31 | 1.06 ± 0.33
C#CCN(C)[C@H](C)Cc1ccccc1 [Selegiline hydrochloride] | 1.11 ± 0.04 | 1.34 ± 0.13 | 0.193 ± 0.094 | 0.609 ± 0.14 | 1.01 ± 0.15 | 0.82 ± 0.13
C[C@H]1CCC[C@H](O)CCCCCc2cc(O)cc(O)c2C(=O)O1 [Zeranol] | 1.37 ± 0.23 | 1.465 ± 0.0051 | 1.22 ± 1.2 | 1.31 ± 0.47 | 0.942 ± 0.24 | 0.858 ± 0.25
CCN(C(C)=O)c1cccc(-c2ccnc3c(C#N)cnn23)c1 [Zaleplon] | 1.56 ± 0.11 | 1.37 ± 0.16 | 0.698 ± 0.28 | 1.18 ± 0.21 | 0.648 ± 0.45 | 0.993 ± 0.074
C=C(C)CN1CC[C@@]23c4c5ccc(O)c4O[C@H]2c2[nH]c4ccccc4c2C[C@]3(O)C1C5 [SDM25N hydrochloride] | 0.21 ± 0.027 | 0.0577 ± 0.032 | 0.00403 ± 0.0007 | 0.000637 ± 0.00069 | 0.406 ± 0.28 | 0.461 ± 0.41
CN1[C@@H]2C[C@@H](OC(=O)[C@H](CO)c3ccccc3)C[C@H]1[C@@H]1O[C@@H]12 [Scopolamine hydrobromide] | 1.09 ± 0.15 | 1.17 ± 0.15 | 4.09 ± 1.4 | 0.731 ± 0.13 | 1.55 ± 0.16 | 1.28 ± 0.07
COc1cc([C@@H]2c3cc4c(cc3[C@H](O)[C@H]3COC(=O)[C@H]23)OCO4)cc(OC)c1OC [Podofilox] | 0.766 ± 0.12 | 1.25 ± 0.17 | 1.86 ± 1.4 | 0.617 ± 0.12 | 0.959 ± 0.16 | 0.776 ± 0.1
c1ccc(Cn2ccnc2)cc1 [Benzylimidazole] | 1.55 ± 0.4 | 1.4 ± 0.1 | 0.31 ± 0.037 | 0.104 ± 0.027 | 0.983 ± 0.11 | 1.15 ± 0.36
COc1cc(N)c(Cl)cc1C(=O)NC1CN2CCC1CC2 (centres undefined) [Zacopride hydrochloride hydrate] | 1.19 ± 0.073 | 1.56 ± 0.1 | 0.681 ± 0.28 | 0.889 ± 0.23 | 0.657 ± 0.23 | 0.788 ± 0.1
c1cncc([C@@H]2CCCN2)c1 [Nornicotine] | 1.67 ± 0.28 | 1.02 ± 0.1 | 1.59 ± 0.63 | 0.9378 ± 0.0053 | 0.961 ± 0.13 | 1.15 ± 0.081
CN1CCC23CCCCC2C1Cc1ccc(O)cc13 [Dextrorphan D-tartrate] | 1.77 ± 0.14 | 1.21 ± 0.14 | 0.339 ± 0.11 | 0.685 ± 0.044 | 1.17 ± 0.38 | 1.2 ± 0.25
CC[C@@H]1/C=C/C=C/C[C@H](C)[C@H](O)[C@](C)(O)C(=O)[C@H](C)[C@@H](O)[C@H](C)C(=O)[C@H](C)[C@@H](O)[C@H](C)/C=C/C(=O)O[C@H]2[C@@H](C)[C@@H](CC1)O[C@@]1(CC[C@@H](C)[C@@H](C[C@H](C)O)O1)[C@@H]2C [Oligomycin A] | 0.278 ± 0.07 | 0.283 ± 0.057 | 0.124 ± 0.1 | 0.509 ± 0.42 | 0.721 ± 0.37 | 0.588 ± 0.31
C[C@]12CCC(=O)C[C@@H]1CC[C@@H]1[C@@H]2CC[C@@]2(C)[C@H]1CC[C@]2(C)O [Mestanolone] | 1.46 ± 0.18 | 0.885 ± 0.12 | 0.343 ± 0.3 | 1.31 ± 0.55 | 1.03 ± 0.099 | 1.25 ± 0.36
C[C@]12CC[C@H](O)CC1=CC[C@@H]1[C@@H]2CC[C@@]2(C)[C@H]1CC[C@]2(C)O [Methylandrostenediol] | 1.12 ± 0.11 | 1.32 ± 0.052 | 2.95 ± 2 | 1.03 ± 0.2 | 0.963 ± 0.44 | 0.903 ± 0.17
C[C@]12CCC(=O)C=C1CC[C@@H]1[C@@H]2CC[C@@]2(C)[C@H]1CC[C@]2(C)O [Methyltestosterone] | 1.19 ± 0.093 | 0.933 ± 0.059 | 1.49 ± 1.6 | 0.766 ± 0.22 | 1.09 ± 0.16 | 1.26 ± 0.24
C[N+]1(C)CCN(c2ccccc2)CC1 [1,1-Dimethyl-4-phenylpiperazinium iodide] | 0.962 ± 0.15 | 1.16 ± 0.039 | 0.263 ± 0.032 | 0.893 ± 0.23 | 1.02 ± 0.19 | 1.09 ± 0.22
COc1ccc2c(c1)[C@]13CCCC[C@@H]1[C@H](C2)N(C)CC3 [Dextromethorphan hydrobromide, monohydrate] | 1.31 ± 0.47 | 1.16 ± 0.16 | 0.227 ± 0.007 | 0.374 ± 0.014 | 1.17 ± 0.12 | 0.6 ± 0.1
